This is one part of the list.
tested on: T1, C. trachomatis L2/434/Bu expressing GFP (CTL2-GFP); parameters: species or system HeLa; C. trachomatis total inclusion area by high-content imaging, normalised to DMSO; conditions: total inclusion area; 28.5 h, 10 µM; inhibitor
T1 construct: L2/434/Bu GFP intracellular growth in HeLa cells
Procedure, shortened: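 Post-fluorescence-read fixation, DNA staining with Hoechst and high-content imaging; GFP inclusion area and number per well, and nuclei counts, used as proxies for bacterial growth and host viability.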

SMILES	% of control remaining
CCc1ccc(C(O)CNC2CCN(c3nccs3)CC2)cc1 (stereo not shown) [CBK304215]	49.9355
Cc1cccc(-c2ncc(NC(=O)Cc3ccc(OC(F)(F)F)cc3)nc2-c2cccnc2)c1 [CBK037030]	112.705
Cc1nc2c(C(=O)NCCCOC(C)C)cnn2c(C)c1Cc1cccc(Cl)c1 [CBK162043]	96.377
Cc1ccc(C)c(C2CCCN2C(=O)Cn2cccc(C(=O)NCc3ccccc3)c2=O)c1 (stereo not shown) [CBK286062]	121.023
O=[N+]([O-])c1ccccc1CN1CCC(N2CCCCC2)CC1 [CBK261852]	86.3202
COc1cc(N)c2ncccc2c1 [CBK011972C]	0.8169
Nc1ncncc1-c1noc([C@@H]2CCCN2C2CCOCC2)n1 [CBK288932]	105.646
CN1CCN(S(=O)(=O)c2ccccc2Br)CC1 [CBK062435]	91.1426
CC(C)c1ccc(/C=C/C(=O)NCCN2CCOCC2)cc1 [CBK149631]	99.7547
CCOC(=O)c1ccc(/N=C2/NC(=O)/C(=C\c3ccccc3OCC(=O)O)S2)cc1 [CBK265658]	98.1882
COc1ccc2[nH]cc(C(=O)NCCn3nc(C)c(C)c3C)c2c1 [CBK281389]	98.233
Cc1noc(C)c1NC(=O)c1c(-c2ccccc2)noc1C [CBK200314]	104.346
CSc1nsc(SCc2cnc(C)nc2N)n1 [CBK268337]	81.0847
CCOC(=O)N1CCN(Cc2ccc(OCc3cccnc3)cc2)CC1 [CBK305883]	25.3383
CN1C(=O)COc2ccccc2C/C=C/C[C@H]2CN(C(=O)C3CCC3)CC[C@H]21 [CBK292087]	114.055
CN(C)c1ccc(-c2cncc(NCc3ccc4c(c3)OCO4)n2)cc1 [CBK037190]	74.276
Cn1cc(C(=O)NC2CCN(c3ccc(C#N)cc3F)CC2)cn1 [CBK304939]	69.0848
COc1ccc(Br)c(C(CO)N(C)C(=O)Cc2cnccc2C)c1 (stereo not shown) [CBK306267]	56.0612
N#Cc1cnn(-c2ccc(Cl)cc2Cl)c1N [CBK086125]	112.84
Cc1ccc(-c2cncc(N3CCCC3CO)n2)cc1C (stereo not shown) [CBK065945]	87.2649

SMILES	% of control remaining
CC(C)Cn1cncc1CNS(=O)(=O)c1cccc(C(=O)N2CCC2)c1 [CBK307068]	50.441
Cc1nccn1CCC(=O)N1CCc2[nH]c3ccccc3c2C1 [CBK281882]	87.6256
O=P(O)(COc1ccccc1)COc1ccccc1 [CBK261620]	83.426
CCCCc1c(Cl)nc(C#N)c2c1CCCC2 [CBK020252]	32.3605
CC(=O)N1CCCCC[C@@H]2[C@@H]1C[C@@H](Cc1ccccc1)N2C(=O)c1ccccc1 [CBK285576]	85.177
N#Cc1cccc(C(=O)NCCc2cn3c(n2)CCCC3)c1 [CBK305046]	52.3802
COc1ccc(N(C(C)C(=O)N/N=C2\C(=O)Nc3ccccc32)S(C)(=O)=O)cc1 (stereo not shown) [CBK262408]	107.955
O=C(C1CC1)N1CCC(Cn2nc(-c3ccccc3)ccc2=O)CC1 [CBK284115]	78.322
O=S1(=O)CC(NCc2ccccc2)C(Nc2ccccc2)C1 (stereo not shown) [CBK265797]	117.231
O=c1cc2nc(-c3ccccc3F)[nH]c(=S)n2[nH]1 [CBK288402]	45.7924
COc1ccc(Nc2nc(-c3cccc(N)c3)cnc2N)cc1 [CBK063585]	131.574
COc1cc(CNc2cc(-c3ccsc3)ncn2)cc(OC)c1OC [CBK037794]	124.807
CSc1nsc(SCC(=O)Nc2cccc(NC(C)=O)c2)n1 [CBK269833]	89.2409
COC(=O)c1ccsc1NS(=O)(=O)c1cc(Cl)sc1Cl [CBK039062]	83.4852
CCCc1cc(-c2c(Cl)cccc2Cl)[nH]n1 [CBK107818]	85.8434
CC(C)c1nccn1CCC(=O)N1CCC(c2ccncc2)CC1 [CBK283512]	58.0663
O=C(NCc1ccc2c(c1)OCO2)c1ccc2c(c1)C(=O)N(Cc1cccnc1)C2=O [CBK267824]	80.4532
CC(C)(CO)CNc1nc(-c2ccc3c(c2)OCO3)cnc1N [CBK063459]	136.356
Cc1c(C(=O)N2CC(n3cc(C(C)(C)O)nn3)C2)sc2cccc(F)c12 [CBK306398]	13.043
Nc1cccc(-c2nccnc2NCc2cccs2)c1 [CBK037537]	101.092

— publication PMC12040169 (PLOS Biology, 2025)
